Measured values as given in the supplement of paper PMC4723716.
± gives the uncertainty stated by the source. Over roughly 9,900 compounds, “viability index relative to DMSO control” has its median near 1; the lowest 2% begin near 0.85. This is one part of the list.

Tested on: Plasmodium falciparum NF54 stage V gametocytes
Test: viability index relative to DMSO control (fraction); higher = less gametocyte killing
Settings: 2.5 µM, library set: Broad Institute DOS, incubation time: 72 h
How it was run: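 Compound at 2.5 µM was incubated for 72 hr at 37°C under low oxygen with P. falciparum NF54 stage V gametocytes (0.75% gametocytemia, 1.25% hematocrit, 10 µl, serum-free screening medium) in 1,536-well plates. Staining used 3 µl of 2.5 µM MitoTracker Red CMXRos plus 0.13% saponin for one to two hours, and red particles of 20–70 µm2 were counted in one imaged field per well. Each viability index is that count relative to the plate mean of solvent-only wells.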

`N#C[C@@H]1[C@H](c2ccc(-c3cccnc3)cc2)[C@H](CO)N1C(=O)Nc1ccc(F)cc1` was tested. Which viability index did it give?
The viability index was 0.994 ± 0.033.

For `CCCNC(=O)N1[C@H](CO)[C@H](c2ccccc2-c2ccccc2F)[C@@H]1C#N`, which viability index is on record?
Its viability index is 1.15 ± 0.028.

Which viability index does the source give for `C[C@H](CO)N1C[C@H](C)[C@@H](CN(C)S(=O)(=O)c2cn(C)cn2)OCCCC[C@H](C)Oc2ccc(NC(=O)Nc3cccc4ccccc34)cc2C1=O` here?
Its viability index is 1.01 ± 0.023.

With `C[C@@H]1CCCCO[C@@H](CN(C)Cc2ccc3c(c2)OCO3)[C@H](C)CN([C@H](C)CO)C(=O)c2cc(NS(=O)(=O)c3cn(C)cn3)ccc2O1` as the compound, how does the viability index read?
The viability index was 1.196 ± 0.0066.

How did the viability index turn out when `CCCNC(=O)[C@@H]1[C@@H](CO)[C@@H]2Cn3c(cccc3=O)[C@H]1N2CCC(F)(F)F` was run?
Its viability index is 1.05 ± 0.024.

With `COc1ccccc1C#Cc1ccc2c(c1)[C@@H]1[C@@H](CCN1C(=O)c1ccncc1)[C@H](CO)N2` as the compound, how does the viability index read?
The viability index was 1.1 ± 0.039.

For `Cc1ccc(S(=O)(=O)N2C[C@H]3[C@@H](c4ccccc42)[C@H](CO)N3Cc2cccnc2)cc1`, which viability index is on record?
The viability index was 1.06 ± 0.063.

`C[C@H](CO)N1C[C@H](C)[C@@H](CN(C)C(=O)NC2CCCCC2)OCc2ccccc2-c2ccccc2C1=O` was tested. Which viability index did it give?
Its viability index is 0.908 ± 0.14.

How did the viability index turn out when `C[C@H](NC(=O)C[C@@H]1CC[C@H]2[C@@H](COc3ccc(NS(=O)(=O)c4ccc(Cl)cc4)cc3C(=O)N2C)O1)c1ccccc1` was run?
The viability index was 0.9494 ± 0.0021.

`O=C1C[C@@H](c2ccccc2)C(=O)N[C@H](c2ccccc2)C/C=C\C[C@H](c2ccccc2)N1` was tested. Which viability index did it give?
The viability index was 1.03 ± 0.024.

For `CNC[C@H]1OCc2cnnn2CCCC(=O)N([C@H](C)CO)C[C@@H]1C`, which viability index is on record?
The viability index was 1.04 ± 0.05.

For `C[C@@H]1CC(=O)N[C@@H](c2ccccc2)C/C=C\C[C@H](c2ccccc2)NC1=O`, which viability index is on record?
Its viability index is 1.01 ± 0.083.

How did the viability index turn out when `C[C@@H]1CN([C@@H](C)CO)C(=O)c2ccccc2-c2ccccc2CO[C@H]1CN(C)S(=O)(=O)c1cccs1` was run?
The viability index was 0.999 ± 0.086.

How did the viability index turn out when `CO[C@@H]1CN(C)C(=O)c2cc(NC(=O)Cc3ccccc3)ccc2OC[C@@H](C)N(C(=O)c2ccccc2F)C[C@H]1C` was run?
Its viability index is 1.14 ± 0.06.

Which viability index does the source give for `O=C(c1cnccn1)N1CC(=O)N2[C@H](CO)[C@@H](c3ccc(/C=C/c4ccccc4)cc3)[C@@H]2C1` here?
Its viability index is 0.999 ± 0.12.

How did the viability index turn out when `CNC[C@@H]1OCc2ccccc2-c2ccccc2C(=O)N([C@H](C)CO)C[C@@H]1C` was run?
The viability index was 0.997 ± 0.019.

`CC(C)NC(=O)N(C)C[C@@H]1Oc2ccc(NC(=O)c3ccncc3)cc2C(=O)N([C@@H](C)CO)C[C@H]1C` was tested. Which viability index did it give?
The viability index was 0.966 ± 0.17.

How did the viability index turn out when `COc1cccc(NC(=O)N[C@@H]2CC[C@@H](CC(=O)N3CCN(C)CC3)O[C@H]2CO)c1` was run?
The viability index was 1.09 ± 0.029.

For `O=C(CCN1CCCCC1)N[C@@H]1CC[C@H](CC(=O)N2CCC(Cc3ccccc3)CC2)O[C@@H]1CO`, which viability index is on record?
Its viability index is 0.968 ± 0.084.

`C/C=C/c1ccc2n(c1=O)C[C@@H]1N[C@H]2[C@H](C(=O)NC2CCCC2)[C@H]1CO.C/C=C\c1ccc2n(c1=O)C[C@@H]1N[C@H]2[C@H](C(=O)NC2CCCC2)[C@H]1CO` was tested. Which viability index did it give?
The viability index was 1.04 ± 0.018.

For `COc1cccc(S(=O)(=O)Nc2ccc3c(c2)[C@@H]2C[C@H](CC(=O)NC4CCCCC4)O[C@H](CO)[C@@H]2O3)c1`, which viability index is on record?
The viability index was 1.07 ± 0.045.

`C[C@H]1CN([C@@H](C)CO)C(=O)Cc2cc(NC(=O)CCC(F)(F)F)ccc2O[C@H]1CN(C)CC1CC1` was tested. Which viability index did it give?
Its viability index is 1.0278 ± 0.00041.

How did the viability index turn out when `N#C[C@@H]1[C@H](c2ccc(C3=CCCC3)cc2)[C@H](CO)N1C(=O)c1ccccn1` was run?
The viability index was 1.13 ± 0.078.

For `O=C(O)C[C@@H]1C=C[C@H](NC(=O)Nc2cc(F)ccc2F)[C@@H](CO)O1`, which viability index is on record?
Its viability index is 0.947 ± 0.13.

For `N#Cc1cccc(-c2ccc3c(c2)[C@@H]2[C@@H](CCN2Cc2ccc4c(c2)OCO4)[C@@H](CO)N3)c1`, which viability index is on record?
The viability index was 1.01 ± 0.035.

`CNC[C@@H]1OCc2ccccc2-c2ccccc2C(=O)N([C@@H](C)CO)C[C@@H]1C` was tested. Which viability index did it give?
Its viability index is 0.991 ± 0.057.

With `C[C@H](CO)N1C[C@H](C)[C@@H](CN(C)Cc2ccc(C(F)(F)F)cc2)Oc2c(NC(=O)NC3CCCCC3)cccc2C1=O` as the compound, how does the viability index read?
Its viability index is 1.07 ± 0.065.

For `C[C@@H]1CN([C@@H](C)CO)C(=O)CCCn2nncc2CO[C@@H]1CN(C)C(=O)c1ccc2ccn(C)c2c1`, which viability index is on record?
Its viability index is 0.977 ± 0.033.

How did the viability index turn out when `CNC[C@@H]1OCc2ccccc2-c2ccccc2C(=O)N([C@@H](C)CO)C[C@H]1C` was run?
Its viability index is 0.979 ± 0.072.

Which viability index does the source give for `COc1ccc2c3c([C@@H](CO)N(C[C@]33CN(C3)C(=O)CC3CC3)C(=O)C3CCCC3)n(C)c2c1` here?
The viability index was 0.932 ± 0.021.

`N#Cc1cccc(-c2ccc3c(c2)[C@@H]2[C@@H](CCN2C(=O)c2ccccc2F)[C@H](CO)N3)c1` was tested. Which viability index did it give?
Its viability index is 1.02 ± 0.063.

Which viability index does the source give for `O=C(C[C@H]1CC[C@@H]2[C@H](COC[C@@H](O)CN2Cc2cccc(Cl)c2)O1)NCc1cccc(F)c1` here?
Its viability index is 1.08 ± 0.057.

Which viability index does the source give for `C[C@H](CO)N1C[C@H](C)[C@H](CN(C)Cc2ccncc2)Oc2ncc(C#CCC3CCCCC3)cc2C1=O` here?
Its viability index is 0.861 ± 0.03.

With `CN1c2ccc(Br)cc2[C@@H]2[C@@H](CCN2C(=O)c2ccc(F)cc2)[C@@H]1CO` as the compound, how does the viability index read?
Its viability index is 1.088 ± 0.0073.

With `COc1ccc2c3c([C@H](CO)N(C[C@]33CN(CC4CCCCC4)C3)C(=O)Cc3ccccn3)n(C)c2c1` as the compound, how does the viability index read?
Its viability index is 0.9893 ± 0.008.

Which viability index does the source give for `CO[C@@H]1CN(C)C(=O)c2cc(NC(=O)c3cnccn3)ccc2OC[C@H](C)NC[C@H]1C` here?
Its viability index is 1.03 ± 0.053.

With `O=C(Nc1ccc2c(c1)[C@H]1C[C@H](CC(=O)N3CCc4ccccc4C3)O[C@H](CO)[C@H]1O2)c1ccc2c(c1)OCO2` as the compound, how does the viability index read?
The viability index was 1.06 ± 0.05.

For `CN(C[C@@H]1N[C@H](CO)[C@H]1c1ccc(C2=CCCC2)cc1)C(=O)c1cccc(F)c1`, which viability index is on record?
The viability index was 1.01 ± 0.07.

For `COc1ccc2c3c([C@@H](CO)N(Cc4ccccc4)C[C@]33CN(C3)S(=O)(=O)c3ccc(C)cc3)n(C)c2c1`, which viability index is on record?
The viability index was 0.998 ± 0.043.

How did the viability index turn out when `COc1cccc(C#Cc2ccc([C@@H]3[C@@H](C#N)N[C@@H]3CO)cc2)c1` was run?
The viability index was 1.05 ± 0.016.

`N#Cc1cccc(-c2ccc3c(c2)[C@@H]2[C@@H](CCN2C(=O)CN2CCOCC2)[C@@H](CO)N3)c1` was tested. Which viability index did it give?
The viability index was 1.16 ± 0.1.

For `CCCNC(=O)N(C)C[C@@H]1Oc2cc(C#C[C@H](C)O)ccc2S(=O)(=O)N([C@H](C)CO)C[C@H]1C`, which viability index is on record?
Its viability index is 1.07 ± 0.064.

`C[C@@H]1CN([C@H](C)CO)C(=O)c2ccccc2-c2ccccc2CO[C@@H]1CN(C)S(=O)(=O)c1cccc(C#N)c1` was tested. Which viability index did it give?
Its viability index is 0.979 ± 0.037.

With `CN1C[C@@H]2[C@H](c3ccccc31)[C@H](CO)N2C(=O)c1cccnc1` as the compound, how does the viability index read?
Its viability index is 1.05 ± 0.058.

For `Cc1noc(C)c1S(=O)(=O)N(C)C[C@@H]1OCc2cn(nn2)CCCC(=O)N([C@H](C)CO)C[C@@H]1C`, which viability index is on record?
Its viability index is 1.08 ± 0.043.

Which viability index does the source give for `CC(C)NC(=O)N1CC(=O)N2[C@H](CO)[C@H](c3ccc(/C=C/c4ccccc4)cc3)[C@@H]2C1` here?
Its viability index is 0.98 ± 0.029.
